# Measurements from the supplement of paper PMC8728848.
# The other results are listed elsewhere or left out.
# B1: CC1G-11630 (Coprinopsis cinerea), A8P462 (protein)
# chain: MTTEAKIKLKAVVYWELVFDYDNSSNTGEITQSYTVKISQTSTRSTFASEVSTTTIDTLTKNNQEVDVGASYGAISANVSASWEHSEEVNNMLEKTTQTSTEDTYTVETEETRSYTIGPGGMLSLFQKHFSGPGMHVAFDVFTTDLELAKERTEIDIDVDVEAIRFVREIRVVYTDIMSEAPGDHVREINGKNPDINYGFNGKFVWLVPEQTRKTAQALTNVEFVSQAESDDRYWDLAAGAGGSNRYLIPVYDTNNKDKIYELALWRSDSYITHDKVKAAGWSGTTGDINSGRGGTYLNLVWKTRHAY
# Assays:
# Assay in all cases: glycan array binding signal (z-score within array); higher = stronger binding
# Conditions in all cases: glycan notation: IUPAC condensed, linker removed
# [1] = molecular target: GlcNAc(b1-3)GalNAc
# Outline: (§1)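 Glycan array binding is given as a within-array Z-score, which can be read as non-binding when negative. The arrays, 3228 of them, came from the Consortium for Functional Glycomics database and were retained only where the protein sequence was available. Z-scores were averaged across arrays of the same protein sequence at different concentrations or buffers and across linkers.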
# [2] = molecular target: GlcNAc(b1-3)Man
# Outline: as §1
# [3] = molecular target: GlcNAc(b1-3)[GlcNAc(b1-4)][GlcNAc(b1-6)]GlcNAc
# Outline: as §1
# [4] = molecular target: GlcNAc(b1-3)[GlcNAc(b1-6)]Gal(b1-4)GlcNAc
# Outline: as §1
# [5] = molecular target: GlcNAc(b1-3)[GlcNAc(b1-6)]GalNAc
# Outline: as §1
# [6] = molecular target: GlcNAc(b1-4)Gal(b1-4)GlcNAc
# Outline: as §1
# [7] = molecular target: GlcNAc(b1-4)GlcNAc
# Outline: as §1
# [8] = molecular target: GlcNAc(b1-4)GlcNAc(b1-4)GlcNAc
# Outline: as §1
# [9] = molecular target: GlcNAc(b1-4)GlcNAc(b1-4)GlcNAc(b1-4)GlcNAc(b1-4)GlcNAc
# Outline: as §1
# [10] = molecular target: GlcNAc(b1-4)GlcNAc(b1-4)GlcNAc(b1-4)GlcNAc(b1-4)GlcNAc(b1-4)GlcNAc
# Outline: as §1
# [11] = molecular target: GlcNAc(b1-4)[GlcNAc(b1-6)]GalNAc
# Outline: as §1
# [12] = molecular target: GlcNAc(b1-6)Gal(b1-4)GlcNAc
# Outline: as §1
# [13] = molecular target: GlcNAc(b1-6)GalNAc
# Outline: as §1
# [14] = molecular target: GlcNAc6S(b1-3)Gal(b1-4)GlcNAc
# Outline: as §1
# [15] = molecular target: Kdn(a2-3)Gal(b1-3)GalNAc
# Outline: as §1
# [16] = molecular target: Kdn(a2-3)Gal(b1-3)GlcNAc
# Outline: as §1
# [17] = molecular target: Kdn(a2-3)Gal(b1-4)Glc
# Outline: as §1
# [18] = molecular target: Kdn(a2-3)Gal(b1-4)GlcNAc
# Outline: as §1
# [19] = molecular target: Kdn(a2-3)Gal(b1-4)[Fuc(a1-3)]GlcNAc
# Outline: as §1
# [20] = molecular target: Kdn(a2-6)Gal(b1-4)GlcNAc
# Outline: as §1
# [21] = molecular target: Man(a1-2)Man(a1-2)Man(a1-3)Man
# Outline: as §1
# [22] = molecular target: Man(a1-2)Man(a1-2)Man(a1-6)[Man(a1-3)]Man
# Outline: as §1
# [23] = molecular target: Man(a1-2)Man(a1-3)Man
# Outline: as §1
# [24] = molecular target: Man(a1-2)Man(a1-3)[Man(a1-2)Man(a1-6)]Man
# Outline: as §1
# [25] = molecular target: Man(a1-2)Man(a1-3)[Man(a1-2)Man(a1-6)]Man(a1-6)[Man(a1-2)Man(a1-2)Man(a1-3)]Man
# Outline: as §1
# [26] = molecular target: Man(a1-2)Man(a1-3)[Man(a1-2)Man(a1-6)]Man(a1-6)[Man(a1-2)Man(a1-2)Man(a1-3)]Man(b1-4)GlcNAc(b1-4)GlcNAc
# Outline: as §1
# [27] = molecular target: Man(a1-2)Man(a1-3)[Man(a1-6)]Man(a1-6)[Man(a1-2)Man(a1-3)]Man(b1-4)GlcNAc(b1-4)GlcNAc
# Outline: as §1
# [28] = molecular target: Man(a1-2)Man(a1-6)[Man(a1-3)]Man(a1-6)[Man(a1-2)Man(a1-2)Man(a1-3)]Man
# Outline: as §1
# [29] = molecular target: Man(a1-2)Man(a1-6)[Man(a1-3)]Man(a1-6)[Man(a1-2)Man(a1-2)Man(a1-3)]Man(b1-4)GlcNAc(b1-4)GlcNAc
# Outline: as §1
# [30] = molecular target: Man(a1-3)[Man(a1-6)]Man
# Outline: as §1
# [31] = molecular target: Man(a1-3)[Man(a1-6)]Man(a1-6)[Man(a1-2)Man(a1-3)]Man(b1-4)GlcNAc(b1-4)GlcNAc
# Outline: as §1
# [32] = molecular target: Man(a1-3)[Man(a1-6)]Man(a1-6)[Man(a1-3)]Man
# Outline: as §1
# [33] = molecular target: Man(a1-3)[Man(a1-6)]Man(a1-6)[Man(a1-3)]Man(b1-4)GlcNAc(b1-4)GlcNAc
# Outline: as §1
# [34] = molecular target: Man(a1-3)[Man(a1-6)]Man(b1-4)GlcNAc(b1-4)GlcNAc
# Outline: as §1
# [35] = molecular target: Man(a1-3)[Man(a1-6)]Man(b1-4)GlcNAc(b1-4)[Fuc(a1-6)]GlcNAc
# Outline: as §1
# [36] = molecular target: Man(a1-6)Man
# Outline: as §1
# [37] = molecular target: Man(b1-4)GlcNAc
# Outline: as §1
# [38] = molecular target: MurNAc(b1-4)GlcNAc
# Outline: as §1
binder,measurement,setting,value
B1,glycan array binding signal (z-score),[1],-0.57
same,glycan array binding signal (z-score),[2],0.017
same,glycan array binding signal (z-score),[3],-0.287
same,glycan array binding signal (z-score),[4],-0.82
same,glycan array binding signal (z-score),[5],-0.389
same,glycan array binding signal (z-score),[6],-0.152
same,glycan array binding signal (z-score),[7],-0.351
same,glycan array binding signal (z-score),[8],-0.313
same,glycan array binding signal (z-score),[9],0.171
same,glycan array binding signal (z-score),[10],0.74
same,glycan array binding signal (z-score),[11],-0.238
same,glycan array binding signal (z-score),[12],-0.115
same,glycan array binding signal (z-score),[13],-0.182
same,glycan array binding signal (z-score),[14],-0.193
same,glycan array binding signal (z-score),[15],0.243
same,glycan array binding signal (z-score),[16],-0.246
same,glycan array binding signal (z-score),[17],-0.287
same,glycan array binding signal (z-score),[18],0.379
same,glycan array binding signal (z-score),[19],-0.32
same,glycan array binding signal (z-score),[20],-0.403
same,glycan array binding signal (z-score),[21],-0.039
same,glycan array binding signal (z-score),[22],-0.059
same,glycan array binding signal (z-score),[23],-0.436
same,glycan array binding signal (z-score),[24],-0.55
same,glycan array binding signal (z-score),[25],-0.354
same,glycan array binding signal (z-score),[26],0.434
same,glycan array binding signal (z-score),[27],-0.164
same,glycan array binding signal (z-score),[28],-0.631
same,glycan array binding signal (z-score),[29],0.152
same,glycan array binding signal (z-score),[30],-0.172
same,glycan array binding signal (z-score),[31],0.059
same,glycan array binding signal (z-score),[32],0.492
same,glycan array binding signal (z-score),[33],-0.128
same,glycan array binding signal (z-score),[34],-0.422
same,glycan array binding signal (z-score),[35],0.119
same,glycan array binding signal (z-score),[36],0.621
same,glycan array binding signal (z-score),[37],-0.28
same,glycan array binding signal (z-score),[38],-0.226
